Screen size: about 45,000 compounds; about 65 (0.1%) were called active. Calls come from the whole dose curve; as a rule, active = well fitted activation curve with a large enough effect; inconclusive = small, poorly fitted or top-dose-only effect; inactive = no such curve, though single readings can be large or run the other way. The list shows a part of the results.
Each molecule was assayed against Galactocerebrosidase (Homo sapiens) (UniProt P54803) (assay: A Novel Cell-Based Assay to Identify Small Molecules for B -Galactocerebrosidase). Settings: 145M-Twi-hGALC-G270D cells (Twitcher mouse brain line with human GALC G270D), HMU-beta-Gal fluorescence, 48 h; series mostly up to 57.5 µM; activation: at the top concentration.
Sequence of UniProt P54803 (P54803 whole entry, looked up): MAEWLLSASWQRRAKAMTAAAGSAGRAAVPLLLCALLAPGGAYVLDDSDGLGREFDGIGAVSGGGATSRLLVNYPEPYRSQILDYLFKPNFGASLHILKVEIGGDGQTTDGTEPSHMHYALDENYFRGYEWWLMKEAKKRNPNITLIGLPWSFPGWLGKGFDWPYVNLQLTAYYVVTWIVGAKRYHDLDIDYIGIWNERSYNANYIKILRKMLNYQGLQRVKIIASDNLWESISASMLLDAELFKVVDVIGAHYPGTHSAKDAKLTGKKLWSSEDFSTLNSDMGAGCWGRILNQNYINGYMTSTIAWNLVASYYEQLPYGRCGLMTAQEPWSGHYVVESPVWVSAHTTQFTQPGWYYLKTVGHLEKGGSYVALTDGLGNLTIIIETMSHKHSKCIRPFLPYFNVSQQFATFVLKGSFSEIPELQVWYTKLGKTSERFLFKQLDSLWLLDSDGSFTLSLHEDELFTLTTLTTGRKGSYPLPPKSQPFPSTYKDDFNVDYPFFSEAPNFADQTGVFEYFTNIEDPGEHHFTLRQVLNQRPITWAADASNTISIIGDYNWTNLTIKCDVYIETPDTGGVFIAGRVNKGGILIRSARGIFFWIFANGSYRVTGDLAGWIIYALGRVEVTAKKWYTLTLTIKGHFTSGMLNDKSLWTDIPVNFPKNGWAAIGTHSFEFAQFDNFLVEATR
Method in brief: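 Fluorescence readout: HMU-β-gal cleavage by mutant GALC (0.1 mM final, citrate/phosphate pH 5.2 with 1 mg/mL taurocholate), stopped with carbonate/bicarbonate plus Triton X-100. Cells: murine Twitcher 145M-Twi expressing human G270D GALC; qHTS for activators.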
Note: 0% is about no effect; nearly all actives have a fitted effect of over 65% in size.

activation, inactive:
O=C(Nc1cc(-c2nc3ccccc3o2)ccc1Cl)c1ccc(N2CCCCC2)c([N+](=O)[O-])c1 -6.11%
COC(=O)c1ccccc1NC(=O)CSc1nc2ccccc2nc1Cc1ccccc1OC -3.74%
CCOC(=O)c1c(-c2ccc(Br)cc2)csc1NC(=O)c1ccc(F)cc1 -11.9%
COc1ccc(C2c3c(n(C)c4ccccc34)C(=O)N2CC(=O)Nc2ccc(C)c(Cl)c2)cc1 (stereo unspecified) 15.7%
Cc1ccc(NC(=O)Cn2cc(S(=O)(=O)c3ccc(C)cc3)c(=O)c3cc4c(cc32)OCO4)cc1 0.462%
Cc1ccc(-c2nc(SCCOc3ccccc3C)n3[nH]c(=O)cc3n2)cc1 -15.4%
COc1ccc(CCN2CCC(Nc3nc4ccccc4n3Cc3ccc(F)cc3)CC2)cc1 -6.66%
CCN(Cc1ccncc1)C(=O)C(CO)c1ccccc1 (stereo unspecified) -4.98%
CN(C)CCOC1=Cc2ccccc2Sc2ccc(Cl)cc21 -16.2%
Cc1ccccc1C(=O)Nc1ccc(OCc2cc(=O)n3cccc(C)c3n2)cc1 -13.2%
COc1ccc(NC(=O)Nc2nnc(C)s2)cc1 -6.58%
O=c1c2oc3ccccc3c2n(Cc2ccc(Cl)cc2)c(=O)n1Cc1ccco1 -14.5%
O=C1COc2cc(S(=O)(=O)NCc3ccco3)c(Cl)cc2N1 -9.89%
CC1=C(c2ccc(C)c(C)c2)S(=O)(=O)N=C1N1CCC(C(=O)N2CCC(C(N)=O)CC2)CC1 -12%
CCOC(=O)C1CCN(c2nc3c(S(=O)(=O)c4ccccc4)nnn3c3ccsc23)CC1 -14.1%
CCc1ccccc1N(CC)C(=O)c1c(C)oc2ncnc(N3CCOCC3)c12 -6.2%
Cc1cccc(CN2CCC(CNC(=O)c3c(C)oc4ncnc(N5CCCCC5)c34)CC2)c1 -19.7%
CC(Sc1nc(=O)cc(N)n1CCc1ccccc1)C(=O)Nc1ccc(Cl)cc1 (stereo unspecified) -28.1%
CCN(C(=O)C1CCC(CNS(=O)(=O)c2cccc3nsnc23)CC1)c1ccc(C)c(C)c1 (stereo unspecified) -16.2%
Cc1cc(C)cc(OCC(=O)N(Cc2cccs2)c2ccc(Cl)cc2)c1 -14.9%
Cc1cc(-c2ccc(C)c(S(=O)(=O)NCc3cccc(Br)c3)c2)on1 -9.02%
CCCS(=O)(=O)N1CC(=O)N(c2cccc(Cl)c2C)C(C)(C(=O)NC2CCCC2)C1 (stereo unspecified) -13.9%
CCCCCn1c(CCNC(=O)c2ccc(F)cc2)nc2ccccc21 -11.9%
CCC(Oc1ccccc1)C(=O)Nc1cc(-c2cccc(C)c2)nn1-c1ccccc1 (stereo unspecified) -3.53%
COc1ccc(-n2c(C)c(C(C)=O)c3cc(OC(=O)COc4ccccc4)ccc32)cc1 -22.9%
COc1ccc(-n2nc(C(=O)N3CCN(c4cccc(C)c4C)CC3)c3c4ccccc4n(C)c3c2=O)cc1Cl -5.07%
COc1cccc(CNC(=O)Cn2ncn3nc(-c4cccs4)cc3c2=O)c1OC -9.76%
Cc1ccc(CNC(=O)Cc2c(C)c3c(cc(C)c4c(C)coc43)oc2=O)cc1 3.05%
Fc1ccc(-c2nn(-c3ccccc3Cl)c3c2cnc2ccccc23)cc1 -6.01%
Cc1ccc2onc(CC(=O)N3CCN(c4cc(Cl)ccc4C)CC3)c2c1 -12.7%
CC(NC(=O)c1ccc2c(c1)CCN2S(=O)(=O)c1ccccc1)c1ccccc1 (stereo unspecified) -3.32%
Fc1ccccc1Cc1cn2cc(-c3ccc(Cl)cc3)nc2s1 -9.85%
CCC(=O)N1CCCc2cc(S(=O)(=O)N3CCC(C(=O)NC4CCCCC4)CC3)ccc21 -15%
COc1ccccc1Cn1c(CNS(=O)(=O)c2ccc(C(C)C)cc2)nc2cccnc21 5.2%
O=C(c1ccc2c(c1)N(Cc1ccc(F)cc1)C(=O)c1ccccc1S2(=O)=O)N1CCCC1 -15.2%
COc1ccc(CNC(=O)c2nc(SCc3ccccc3F)ncc2Cl)cc1 -8.54%
COc1ccccc1NC(=O)c1oc2ccccc2c1NC(=O)c1cccc(OC)c1OC -23.8%
Cc1cccc(/C=C(\C#N)c2nc3ccccc3c(=O)[nH]2)c1 -3.7%
COc1cc(NC(=O)CCS(=O)(=O)c2ccc3c(c2)CC(=O)N3C)cc(OC)c1OC 1.12%
CCOc1ccc(-c2cc(C(=O)Oc3ccc(C#N)cc3)no2)cc1 5.83%
CCOC(=O)C1CCC(CN(Cc2ccccc2)S(=O)(=O)c2ccc(Br)cc2)CC1 (stereo unspecified) 1.84%
CCCN1Cc2cccc(C(=O)Nc3ccc(C(C)=O)cc3)c2C1=O 11.3%
COc1ccc(N2CCN(CCCNC(=O)c3cc(Nc4ccc(OC)cc4OC)nc4ccccc34)CC2)cc1 -4.55%
O=C(CCS(=O)(=O)c1ccccc1)N(Cc1cccnc1)c1nc2ccc(Cl)cc2s1 -14.7%
O=C(CN1C(=O)COc2ccccc21)NCCc1ccc(Cl)cc1 -9.12%
CCOc1ccc(N(CC)S(=O)(=O)N2CCCC(C(=O)Nc3ccc(C(C)=O)cc3)C2)cc1 (stereo unspecified) -18%
COc1cccc(C(=O)c2c(N)c(-c3nc(-c4ccccc4)cs3)c3ccccn23)c1 -12.5%
Cc1cccc(-n2c(=O)c3c(c4cc(C)ccc4n3C)n(CC(=O)N3CCCC3)c2=O)c1 2.22%
CCc1ccc(NC(=O)CN2C(=O)C(c3ccc(Cl)cc3)=NC23CCCCC3)cc1 -6.5%
CCOc1ccccc1NC(=O)c1nc(SC(C)C)ncc1Cl -8.67%
Cc1c(CNC2CCCCC2)c(C(=O)O)c(C)n1Cc1cccc(Cl)c1 -16.2%
Cc1cccc(C)c1OCCCn1c(CCNC(=O)C2CCCCC2)nc2ccccc21 -24.2%
Cc1ccc(NC(=O)Cn2c(=O)n(Cc3nc(C)no3)c(=O)c3ccccc32)c(Cl)c1 -13.8%
Cc1c(C(=O)Nc2cccc(Cl)c2)sc2nc3n(c(=O)c12)N=C(c1cccc(Br)c1)CS3 -13.1%
Cc1ccc(CNC(=O)c2ccc(NC(=O)N3CCSc4ncccc43)cc2)cc1 8.82%
CCc1ccc(-n2c(=O)c3c4c(sc3n(CC(=O)N3CCCCC3CC)c2=O)CCC4)cc1 (stereo unspecified) -5.3%
CCOC(=O)c1cc(-c2ccc(OC)cc2)n(CCC(=O)NCc2ccc(OC)cc2)c1C -12.7%
Cc1ccc(C)c(NC(=O)CN(C)S(=O)(=O)c2ccc3c(c2)CCC(=O)N3)c1 -7.17%
CC(C)NC(=O)N1CCN(S(=O)(=O)c2ccc3c(ccn3C)c2)CC1 5.2%
CCCS(=O)(=O)c1nc(S(=O)(=O)c2ccc(C)cc2)c(N(C)Cc2ccccc2)s1 -8.14%
Cc1ccccc1C(=O)Nc1nnc2n1CCS2 -2.64%

Reference: PubChem BioAssay AID1159614 (National Center for Advancing Translational Sciences (NCATS), 2016)
